Results reported in PubChem BioAssay AID1461 (National Center for Advancing Translational Sciences (NCATS), 2008).
The campaign covered roughly 220,000 compounds. About 2,300 (1%) were called active. The call rests on the fitted dose curve; in most records, active means well fitted inhibition curve with a large enough effect; inconclusive means small, poorly fitted or top-dose-only effect, or effect the other way; inactive means no such curve, though single readings can be large or run the other way. The inconclusive results got no clear call from the source. Potencies of inconclusive entries are left out as doubtful fits.

What follows are compounds tested against Neuropeptide S receptor (Homo sapiens) (UniProt Q6W5P4) (assay: qHTS Assay for Antagonists of the Neuropeptide S Receptor: cAMP Signal Transduction). Settings: CHO-NPSR cells, cAMP TR-FRET, antagonist mode; series mostly up to 38.3 µM.
UniProt Q6W5P4, sequence (Q6W5P4 whole entry, looked up): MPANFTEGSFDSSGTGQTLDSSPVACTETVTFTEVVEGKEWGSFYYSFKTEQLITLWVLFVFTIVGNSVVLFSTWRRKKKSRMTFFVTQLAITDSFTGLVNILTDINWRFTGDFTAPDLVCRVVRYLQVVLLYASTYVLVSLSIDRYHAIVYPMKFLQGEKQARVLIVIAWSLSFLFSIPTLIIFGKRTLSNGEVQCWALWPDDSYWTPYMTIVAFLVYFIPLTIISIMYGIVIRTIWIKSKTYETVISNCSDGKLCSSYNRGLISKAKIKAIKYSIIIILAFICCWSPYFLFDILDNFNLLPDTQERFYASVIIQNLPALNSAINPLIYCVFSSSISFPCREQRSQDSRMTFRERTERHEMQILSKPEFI
Source text: NIH Chemical Genomics Center [NCGC] NIH Molecular Libraries Probe Production centers Network [MLPCN] MLPCN Grant: X01-DA026210-01 Assay Submitter (PI): Heilig, Markus Alexander NCGC Assay Overview: Neuropeptide S receptor (NPSR), previously known as GPR154, is a recently de-orphanized G protein coupled receptor. Its endogenous ligand is the 20 amino acids peptide Neuropeptide S (NPS). […] NPS and its receptor are found in various tissues. Specifically they are highly expressed in brain areas that have been implicated in modulation of arousal, stress and anxiety. Central administration of NPS in mice produces an unusual profile of activity by inducing wakefulness and arousal, while at the same time suppressing anxiety. Therefore, NPSR may represent a novel drug target for the treatment of sleep and anxiety disorders. […] This change in intracellular cAMP level can be detected by a homogeneous LANCE cAMP assay based on the TR-FRET (time resolved fluorescence resonance energy transfer) between a europium-labeled cAMP tracer complex and a cAMP-specific antibody labeled with Alexa Fluor 647. […] Both emission signals from the FRET donor (620 nm) and the acceptor (665 nm) can be detected by a plate reader in the TRF mode. Expression of result in fluorescence ratio (665 nm/620 nm) helps to normalize differences due to cell density and reagent dispensing. […]
Further: nearly all actives have a fitted effect of over 50% in size.
Potency means the concentration at half of the fitted maximal effect; tags describe the fitted curve by direction and shape.

Question: COC(=O)c1sc(-c2ccc(C(C)(C)C)cc2)cc1NC(=O)COCC(=O)O was tested. Which Potency did it give?
Answer: inconclusive [inhibitor, single point]
